# Over roughly 2,900 compounds, “NF-kB SEAP reporter activity, fold change vs agonist alone” has its median near 0.99; the highest 2% begin near 2.6. Some of the results follow.
# Tests used:
# RAW-Dual [1] = experiment: NF-kB SEAP reporter activity, fold change vs agonist alone; higher = enhanced NF-kB activity; conditions: cytotoxicity flag (confluency mask): not cytotoxic
# Outline: (§1)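 RAW-Dual macrophages were seeded in DMEM at 50,000 cells/well in 384-well plates, given 50 nL of library stock by pin tool, and given a PRR agonist 1 h later. Plates were held at 37 °C, 5% CO2 for 20 hours, after which supernatant was read for IRF by QuantiLuc luminescence and for NF-κB by QuantiBlue absorbance at 620 nm. Reporter activity is expressed as fold change over wells that received agonist alone. A well was called cytotoxic when IncuCyte confluency fell below 70% of agonist controls in both mask sets.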
# RAW-Dual [2] = experiment: NF-kB SEAP reporter activity, fold change vs agonist alone; cytotoxicity flag (confluency mask): not cytotoxic; higher = enhanced NF-kB activity
# Outline: as §1
# [3] = library stock concentration (final ~1000-fold dilution): 10 mM, agonist: Imiquimod (TLR7) […]
# [4] = library stock concentration (final ~1000-fold dilution): 10 mM, agonist: MPLA (TLR4) […]
# [5] = agonist: ODN 1826 (TLR9) 0.5 ug/mL
# [6] = agonist: Pam2CSK4 (TLR2/6) 0.1 ug/mL
# [7] = agonist: Pam3CSK4 (TLR2/1) 0.1 ug/mL
compound,measurement,setting,value
O=C(Nc1cccc(C(F)(F)F)c1)Nc1cc(S(=O)(=O)NC2CC2)ccc1-c1ccsc1,NF-kB SEAP reporter activity,RAW-Dual [1]; [3],0.776
same,NF-kB SEAP reporter activity,RAW-Dual [1]; [4],1.6
O=C(Nc1cccc(C(F)(F)F)c1)Nc1cc(S(=O)(=O)NC2CC2)ccc1-c1ccsc1 (library stock concentration (final ~1000-fold dilution): 10 mM),NF-kB SEAP reporter activity,RAW-Dual [2]; agonist: LPS (TLR4) 0.1 ug/mL,2.39
same,NF-kB SEAP reporter activity,RAW-Dual [2]; [5],0.786
same,NF-kB SEAP reporter activity,RAW-Dual [2]; [6],0.284
same,NF-kB SEAP reporter activity,RAW-Dual [2]; [7],0.284
Cl.c1ccc(CC2=NCCN2)cc1 (library stock concentration (final ~1000-fold dilution): 10 mM),NF-kB SEAP reporter activity,RAW-Dual [2]; agonist: LPS (TLR4) 0.1 ug/mL,1.01
same,NF-kB SEAP reporter activity,RAW-Dual [2]; [5],0.943
same,NF-kB SEAP reporter activity,RAW-Dual [2]; [6],1.16
same,NF-kB SEAP reporter activity,RAW-Dual [2]; [7],0.986
Cl.c1ccc(CC2=NCCN2)cc1,NF-kB SEAP reporter activity,RAW-Dual [1]; [3],0.925
same,NF-kB SEAP reporter activity,RAW-Dual [1]; [4],1.07
CC(C(=O)O)c1ccc2c(c1)[nH]c1ccc(Cl)cc12 (stereo not drawn) (library stock concentration (final ~1000-fold dilution): 10 mM),NF-kB SEAP reporter activity,RAW-Dual [2]; agonist: LPS (TLR4) 0.1 ug/mL,1.23
same,NF-kB SEAP reporter activity,RAW-Dual [2]; [5],0.976
same,NF-kB SEAP reporter activity,RAW-Dual [2]; [6],1.01
same,NF-kB SEAP reporter activity,RAW-Dual [2]; [7],1.16
CC(C(=O)O)c1ccc2c(c1)[nH]c1ccc(Cl)cc12 (stereo not drawn),NF-kB SEAP reporter activity,RAW-Dual [1]; [3],0.918
same,NF-kB SEAP reporter activity,RAW-Dual [1]; [4],1.01
CC(NC(=O)C(Cc1ccccc1)NC(=O)OCc1ccccc1)C(=O)CF (stereo not drawn) (library stock concentration (final ~1000-fold dilution): 10 mM),NF-kB SEAP reporter activity,RAW-Dual [2]; agonist: LPS (TLR4) 0.1 ug/mL,0.757
same,NF-kB SEAP reporter activity,RAW-Dual [2]; [5],0.63
same,NF-kB SEAP reporter activity,RAW-Dual [2]; [6],0.927
same,NF-kB SEAP reporter activity,RAW-Dual [2]; [7],0.807
CC(NC(=O)C(Cc1ccccc1)NC(=O)OCc1ccccc1)C(=O)CF (stereo not drawn),NF-kB SEAP reporter activity,RAW-Dual [1]; [3],0.359
same,NF-kB SEAP reporter activity,RAW-Dual [1]; [4],0.984
CC(C)(C)NC(=O)C1CCC2C3CCC4NC(=O)C=CC4(C)C3CCC12C (stereo not drawn),NF-kB SEAP reporter activity,RAW-Dual [1]; [3],0.218
same,NF-kB SEAP reporter activity,RAW-Dual [1]; [4],1.07
CC(C)(C)NC(=O)C1CCC2C3CCC4NC(=O)C=CC4(C)C3CCC12C (stereo not drawn) (library stock concentration (final ~1000-fold dilution): 10 mM),NF-kB SEAP reporter activity,RAW-Dual [2]; agonist: LPS (TLR4) 0.1 ug/mL,0.988
same,NF-kB SEAP reporter activity,RAW-Dual [2]; [5],0.946
same,NF-kB SEAP reporter activity,RAW-Dual [2]; [6],0.943
same,NF-kB SEAP reporter activity,RAW-Dual [2]; [7],0.998
CCCCCCCN(CC)CCCC(O)c1ccc(NS(C)(=O)=O)cc1.CCCCCCCN(CC)CCCC(O)c1ccc(NS(C)(=O)=O)cc1.O=C(O)/C=C/C(=O)O (stereo not drawn) (library stock concentration (final ~1000-fold dilution): 10 mM),NF-kB SEAP reporter activity,RAW-Dual [2]; agonist: LPS (TLR4) 0.1 ug/mL,1.03
same,NF-kB SEAP reporter activity,RAW-Dual [2]; [5],0.751
same,NF-kB SEAP reporter activity,RAW-Dual [2]; [6],0.65
same,NF-kB SEAP reporter activity,RAW-Dual [2]; [7],1.05
CCCCCCCN(CC)CCCC(O)c1ccc(NS(C)(=O)=O)cc1.CCCCCCCN(CC)CCCC(O)c1ccc(NS(C)(=O)=O)cc1.O=C(O)/C=C/C(=O)O (stereo not drawn),NF-kB SEAP reporter activity,RAW-Dual [1]; [3],0.941
same,NF-kB SEAP reporter activity,RAW-Dual [1]; [4],0.976
Br.NC(=O)C(c1ccccc1)(c1ccccc1)C1CCN(CCc2ccc3c(c2)CCO3)C1 (stereo not drawn) (library stock concentration (final ~1000-fold dilution): 10 mM),NF-kB SEAP reporter activity,RAW-Dual [2]; agonist: LPS (TLR4) 0.1 ug/mL,0.967
same,NF-kB SEAP reporter activity,RAW-Dual [2]; [5],0.467
same,NF-kB SEAP reporter activity,RAW-Dual [2]; [6],0.82
same,NF-kB SEAP reporter activity,RAW-Dual [2]; [7],0.919
Br.NC(=O)C(c1ccccc1)(c1ccccc1)C1CCN(CCc2ccc3c(c2)CCO3)C1 (stereo not drawn),NF-kB SEAP reporter activity,RAW-Dual [1]; [3],1.02
same,NF-kB SEAP reporter activity,RAW-Dual [1]; [4],0.984
Cc1cc(O)c2c(c1)C(=O)c1cccc(O)c1C2=O (library stock concentration (final ~1000-fold dilution): 10 mM),NF-kB SEAP reporter activity,RAW-Dual [2]; agonist: LPS (TLR4) 0.1 ug/mL,1.16
same,NF-kB SEAP reporter activity,RAW-Dual [2]; [5],0.905
same,NF-kB SEAP reporter activity,RAW-Dual [2]; [6],0.858
same,NF-kB SEAP reporter activity,RAW-Dual [2]; [7],0.921
Cc1cc(O)c2c(c1)C(=O)c1cccc(O)c1C2=O,NF-kB SEAP reporter activity,RAW-Dual [1]; [3],0.753
same,NF-kB SEAP reporter activity,RAW-Dual [1]; [4],1.06
NC(=O)c1cn(Cc2c(F)cccc2F)nn1,NF-kB SEAP reporter activity,RAW-Dual [1]; [3],0.877
same,NF-kB SEAP reporter activity,RAW-Dual [1]; [4],1.05
NC(=O)c1cn(Cc2c(F)cccc2F)nn1 (library stock concentration (final ~1000-fold dilution): 10 mM),NF-kB SEAP reporter activity,RAW-Dual [2]; agonist: LPS (TLR4) 0.1 ug/mL,0.996
same,NF-kB SEAP reporter activity,RAW-Dual [2]; [5],0.972
same,NF-kB SEAP reporter activity,RAW-Dual [2]; [6],0.98
same,NF-kB SEAP reporter activity,RAW-Dual [2]; [7],0.987
COc1cc2c(N3CCN(C(=O)Nc4ccc(OC(C)C)cc4)CC3)ncnc2cc1OCCCN1CCCCC1,NF-kB SEAP reporter activity,"RAW-Dual [1]; library stock concentration (final ~1000-fold dilution): 2 mM, agonist: Imiquimod (TLR7) […]",0.836
same,NF-kB SEAP reporter activity,"RAW-Dual [1]; library stock concentration (final ~1000-fold dilution): 2 mM, agonist: MPLA (TLR4) […]",0.958
COc1cc2c(N3CCN(C(=O)Nc4ccc(OC(C)C)cc4)CC3)ncnc2cc1OCCCN1CCCCC1 (library stock concentration (final ~1000-fold dilution): 2 mM),NF-kB SEAP reporter activity,RAW-Dual [2]; agonist: LPS (TLR4) 0.1 ug/mL,1.09
same,NF-kB SEAP reporter activity,RAW-Dual [2]; [5],0.221
same,NF-kB SEAP reporter activity,RAW-Dual [2]; [6],1.08
same,NF-kB SEAP reporter activity,RAW-Dual [2]; [7],1.2
C=C1CCC2C(C)(CO)C(O)CCC2(C)C1C/C=C1\C=COC1=O (stereo not drawn) (library stock concentration (final ~1000-fold dilution): 10 mM),NF-kB SEAP reporter activity,RAW-Dual [2]; agonist: LPS (TLR4) 0.1 ug/mL,0.786
same,NF-kB SEAP reporter activity,RAW-Dual [2]; [5],0.801
same,NF-kB SEAP reporter activity,RAW-Dual [2]; [6],0.692
same,NF-kB SEAP reporter activity,RAW-Dual [2]; [7],0.833
C=C1CCC2C(C)(CO)C(O)CCC2(C)C1C/C=C1\C=COC1=O (stereo not drawn),NF-kB SEAP reporter activity,RAW-Dual [1]; [3],0.803
same,NF-kB SEAP reporter activity,RAW-Dual [1]; [4],0.925
COc1ccc(C2(C#N)CCC(C(=O)O)CC2)cc1OC1CCCC1 (stereo not drawn) (library stock concentration (final ~1000-fold dilution): 10 mM),NF-kB SEAP reporter activity,RAW-Dual [2]; agonist: LPS (TLR4) 0.1 ug/mL,1.97
same,NF-kB SEAP reporter activity,RAW-Dual [2]; [5],1.95
same,NF-kB SEAP reporter activity,RAW-Dual [2]; [6],1.3
same,NF-kB SEAP reporter activity,RAW-Dual [2]; [7],1.47
COc1ccc(C2(C#N)CCC(C(=O)O)CC2)cc1OC1CCCC1 (stereo not drawn),NF-kB SEAP reporter activity,RAW-Dual [1]; [3],1.38
same,NF-kB SEAP reporter activity,RAW-Dual [1]; [4],1.11
NC(=O)c1ncn(C2OC(CO)C(O)C2O)c1O (stereo not drawn),NF-kB SEAP reporter activity,"RAW-Dual [1]; library stock concentration (final ~1000-fold dilution): 10 mM water, agonist: Imiquimod (TLR7) […]",0.991
same,NF-kB SEAP reporter activity,"RAW-Dual [1]; library stock concentration (final ~1000-fold dilution): 10 mM water, agonist: MPLA (TLR4) […]",0.913
NC(=O)c1ncn(C2OC(CO)C(O)C2O)c1O (stereo not drawn) (library stock concentration (final ~1000-fold dilution): 10 mM water),NF-kB SEAP reporter activity,RAW-Dual [2]; agonist: LPS (TLR4) 0.1 ug/mL,0.614
same,NF-kB SEAP reporter activity,RAW-Dual [2]; [5],0.706
same,NF-kB SEAP reporter activity,RAW-Dual [2]; [6],0.27
same,NF-kB SEAP reporter activity,RAW-Dual [2]; [7],0.466
O=c1ccc2cc(O)c(O)cc2o1,NF-kB SEAP reporter activity,RAW-Dual [1]; [4],1.05
O=c1ccc2cc(O)c(O)cc2o1 (library stock concentration (final ~1000-fold dilution): 10 mM),NF-kB SEAP reporter activity,RAW-Dual [2]; agonist: LPS (TLR4) 0.1 ug/mL,1.03
same,NF-kB SEAP reporter activity,RAW-Dual [2]; [5],0.695
same,NF-kB SEAP reporter activity,RAW-Dual [2]; [6],1
same,NF-kB SEAP reporter activity,RAW-Dual [2]; [7],0.711

# — the supplement of paper PMC10037445
